These are yes or no findings as the source states them, for the method shown. For part of these data: In cells and extracts the contact can be indirect. Some binding calls cover weakened binding; strength is not graded here. For part of these data: Tags and fused reporters may be left off the sequences shown.

The chains behind the UniProt entries cited, without tags or fusion partners. Where a name states a change or a piece, a line headed by the entry shows the natural chain unless it says otherwise. A line that says so, or that is headed by a name, gives the form on record, which may keep a tag or linker.
N-terminally YFP-tagged human Sp100 isoform A (pYFP-Sp100A) (P23497, form named): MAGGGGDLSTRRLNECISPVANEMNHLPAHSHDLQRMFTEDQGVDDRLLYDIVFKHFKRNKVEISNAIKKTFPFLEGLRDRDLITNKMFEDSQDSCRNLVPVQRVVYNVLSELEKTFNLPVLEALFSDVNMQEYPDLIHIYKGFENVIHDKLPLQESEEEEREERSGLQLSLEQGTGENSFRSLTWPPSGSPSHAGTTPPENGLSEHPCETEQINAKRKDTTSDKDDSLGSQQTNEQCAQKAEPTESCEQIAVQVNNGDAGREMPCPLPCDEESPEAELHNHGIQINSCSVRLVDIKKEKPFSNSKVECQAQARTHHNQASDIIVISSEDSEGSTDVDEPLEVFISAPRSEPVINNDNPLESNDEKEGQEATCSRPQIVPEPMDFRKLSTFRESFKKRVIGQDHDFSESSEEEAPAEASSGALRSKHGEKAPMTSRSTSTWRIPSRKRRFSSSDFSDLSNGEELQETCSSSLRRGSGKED
UniProt P29590: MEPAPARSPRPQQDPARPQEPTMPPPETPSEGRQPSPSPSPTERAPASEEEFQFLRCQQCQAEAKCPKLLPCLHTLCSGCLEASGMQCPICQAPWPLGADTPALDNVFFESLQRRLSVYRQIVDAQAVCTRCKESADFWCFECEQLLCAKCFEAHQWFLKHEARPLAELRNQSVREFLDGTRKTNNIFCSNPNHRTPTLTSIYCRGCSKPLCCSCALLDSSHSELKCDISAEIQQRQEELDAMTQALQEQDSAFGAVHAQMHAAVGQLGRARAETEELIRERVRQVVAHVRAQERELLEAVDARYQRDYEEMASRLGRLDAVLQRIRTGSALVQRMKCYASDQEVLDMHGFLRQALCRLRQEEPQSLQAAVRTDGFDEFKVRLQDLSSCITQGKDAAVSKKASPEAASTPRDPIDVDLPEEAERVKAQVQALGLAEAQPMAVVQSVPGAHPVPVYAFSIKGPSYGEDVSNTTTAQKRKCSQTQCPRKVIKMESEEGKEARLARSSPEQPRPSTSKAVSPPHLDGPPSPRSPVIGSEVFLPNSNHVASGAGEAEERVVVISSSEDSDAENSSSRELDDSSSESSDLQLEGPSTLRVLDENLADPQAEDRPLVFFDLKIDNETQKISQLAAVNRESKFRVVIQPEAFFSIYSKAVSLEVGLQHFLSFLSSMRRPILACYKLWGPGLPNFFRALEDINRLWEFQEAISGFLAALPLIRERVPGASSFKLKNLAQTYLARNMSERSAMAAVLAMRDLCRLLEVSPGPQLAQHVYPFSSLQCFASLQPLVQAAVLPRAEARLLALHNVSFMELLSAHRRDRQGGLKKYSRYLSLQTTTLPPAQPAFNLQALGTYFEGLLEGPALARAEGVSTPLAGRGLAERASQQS
UniProt P63279: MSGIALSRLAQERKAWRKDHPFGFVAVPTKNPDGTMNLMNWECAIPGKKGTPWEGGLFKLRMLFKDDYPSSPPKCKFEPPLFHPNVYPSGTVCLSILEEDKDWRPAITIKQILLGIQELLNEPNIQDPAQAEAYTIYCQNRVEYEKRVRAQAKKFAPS

These results are taken from publication PMC7078464.

For assay [1], the target named is N-terminally YFP-tagged human Sp100 isoform A (pYFP-Sp100A) (human) (UniProt P23497). The assay can be described thus: co-IP.
The target in assay [2] is endogenous promyelocytic leukemia protein (PML) (human (endogenous in HepaRG)) (UniProt P29590). The assay can be described thus: co-IP.
Assay [3] addresses GFP-tagged wild-type E2A (pGFP-E2A-wt) (human adenovirus (HAdV); type not stated for the plasmid) (UniProt P03265). The assay can be described thus: co-IP.
Assay [4] addresses T1, SUMO E3 ligase PIAS4, yeast two-hybrid fusion (UniProt Q8N2W9).
T1 sequence: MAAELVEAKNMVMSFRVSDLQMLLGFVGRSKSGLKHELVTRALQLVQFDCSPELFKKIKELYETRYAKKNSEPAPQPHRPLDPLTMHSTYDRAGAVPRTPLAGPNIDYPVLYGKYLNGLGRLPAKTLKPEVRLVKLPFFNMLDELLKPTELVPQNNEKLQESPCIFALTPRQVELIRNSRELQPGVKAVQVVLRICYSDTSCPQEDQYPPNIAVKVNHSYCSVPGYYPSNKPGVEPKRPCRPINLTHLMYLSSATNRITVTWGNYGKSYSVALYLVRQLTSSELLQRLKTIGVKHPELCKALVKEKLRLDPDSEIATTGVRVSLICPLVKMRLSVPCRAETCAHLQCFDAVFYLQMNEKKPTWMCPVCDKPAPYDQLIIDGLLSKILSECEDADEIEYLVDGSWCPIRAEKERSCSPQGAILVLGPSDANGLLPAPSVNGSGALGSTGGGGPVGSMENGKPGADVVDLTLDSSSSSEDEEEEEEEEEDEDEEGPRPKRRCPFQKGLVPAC
The assay can be described thus: two-hybrid.

The target in assay [5] is SUMO-conjugating enzyme Ubc9, yeast two-hybrid fusion (UniProt P63279). The assay can be described thus: two-hybrid.

Regarding “E2A expressed during infection with HAdV wt (H5pg4100, HAdV-C5) (from UniProt P03265 1-529)”, the binding entry in assay [1] and in assay [2] was “binds” each time.
For the molecule “endogenous Ubc9 (from UniProt P63279 1-158) (enzyme)”, the binding entry in assay [3] was “binds”.
Take “full-length adenoviral E2A (DNA binding protein, DBP), yeast two-hybrid fusion (from UniProt P03265 1-529)”: the binding result in assay [4] was “no binding”.
As to “wild-type E2A expressed from pCMX3b-E2A (pE2A-wt) (from UniProt P03265 1-529)”, the binding result in assay [2] is “binds”.

B1: SUMO E3 ligase PIAS4, yeast two-hybrid fusion (enzyme, UniProt Q8N2W9 1-510)
chain: MAAELVEAKNMVMSFRVSDLQMLLGFVGRSKSGLKHELVTRALQLVQFDCSPELFKKIKELYETRYAKKNSEPAPQPHRPLDPLTMHSTYDRAGAVPRTPLAGPNIDYPVLYGKYLNGLGRLPAKTLKPEVRLVKLPFFNMLDELLKPTELVPQNNEKLQESPCIFALTPRQVELIRNSRELQPGVKAVQVVLRICYSDTSCPQEDQYPPNIAVKVNHSYCSVPGYYPSNKPGVEPKRPCRPINLTHLMYLSSATNRITVTWGNYGKSYSVALYLVRQLTSSELLQRLKTIGVKHPELCKALVKEKLRLDPDSEIATTGVRVSLICPLVKMRLSVPCRAETCAHLQCFDAVFYLQMNEKKPTWMCPVCDKPAPYDQLIIDGLLSKILSECEDADEIEYLVDGSWCPIRAEKERSCSPQGAILVLGPSDANGLLPAPSVNGSGALGSTGGGGPVGSMENGKPGADVVDLTLDSSSSSEDEEEEEEEEEDEDEEGPRPKRRCPFQKGLVPAC
Regarding B1, in assay [5], the binding result was “binds”.
